# About 64,000 (15%) of roughly 420,000 compounds were called active. Inconclusive results, whose numbers are uncertain, are shown with a selection of clear calls. The call rests on the fitted dose curve; in most records, active means well fitted inhibition curve with a large enough effect; inconclusive means small, poorly fitted or top-dose-only effect; inactive means flat fitted curve, though single readings scatter. No potency is given beside an inconclusive call; the fits are too rough.
# Experiment: qHTS for Inhibitors of human tyrosyl-DNA phosphodiesterase 1 (TDP1): qHTS in cells in absence of CPT; further: nearly all actives have a fitted effect of over 55% in size
# Settings: DT40 Tdp1-/- hTDP1 cells, no CPT, ATP luminescence, 48 h; activity change, negative = growth inhibition: at 46.2 µM (top of the series) unless noted
# Procedure, shortened: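 Stably hTDP1-transfected Tdp1-null chicken DT40 cells were treated with library compounds minus camptothecin and grown for at least 48 hr at 37 °C, after which cellular ATP was quantified by luminescence.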
# On the % scale 0 is the no-effect control and ±100 the full control effect; potency means the concentration at half of the fitted maximal effect; tags describe the fitted curve by direction and shape.
SMILES,Potency,"activity change, negative = growth inhibition"
CC(NC(=O)CN1CCN(CC(=O)Nc2ccccc2Cl)CC1)c1ccc(Br)cc1 (stereo not given),"inconclusive [inhibitor, single point]",
CC(C)(C)NC(=O)CSc1nc(Cc2ccccc2)nc2ccccc12,"inconclusive [inhibitor, single point]",
CCOC(=O)c1c(NC(=O)c2ccc(N3C(=O)[C@@H]4[C@H](C3=O)[C@H]3C=C[C@@H]4C3)cc2)sc2c1CCCC2,active: 23.1 µM,
COc1ccc(-c2c(-c3cc(OC)cc(OC)c3)n(C)c3ccc(-c4cc(F)cc(OC)c4)cc23)cc1,active: 16.4 µM,
CC1CCN(C(=O)COC(=O)c2cccc(S(=O)(=O)N3CCOCC3)c2)CC1,,inactive: -26%
COc1ccccc1N1CCN(Cc2nc3ccccc3c(=O)n2CC(C)=O)CC1,"inconclusive [inhibitor, single point]",
CC(C)(C)C(=O)N1CCN(c2nc3ccccc3s2)CC1,"inconclusive [inhibitor, single point]",
COc1ccc(-c2cc(C(=O)OCC(=O)NC(C)C)c3ccccc3n2)cc1,"inconclusive [inhibitor, single point]",
CC(C)(C)NS(=O)(=O)c1cccc(S(=O)(=O)c2cccc(S(=O)(=O)NC(C)(C)C)c2)c1,"inconclusive [inhibitor, single point]",
Cc1cccc(NS(=O)(=O)c2cccc(C(=O)N3CC(C)OC(C)C3)c2)c1 (stereo not given),"inconclusive [inhibitor, single point]",
CCN(C(=O)C(=O)c1c[nH]c2ccccc12)c1ccccc1,,inactive: -10.4%
CCOC(=O)N1CCC(n2c(=S)[nH]c3cc(OCC)c(OCC)cc3c2=O)CC1,"inconclusive [inhibitor, single point]",
C[C@@H](c1ccccc1)N1C[C@@H](COCc2ccccc2)Oc2cc(N3CCC[C@H]3CO)ccc2S1(=O)=O,active: 20.6 µM,
CCOc1ccc(-n2nnnc2SCC(=O)c2ccccc2)cc1,"inconclusive [inhibitor, single point]",
Cc1cccc(OCCSc2nc3ccccc3n2CC(=O)N2CCOCC2)c1C,"inconclusive [inhibitor, single point]",
COc1ccc2[nH]c(CN3CCN(CC=C(C)C)C(CCO)C3)c(C)c2c1 (stereo not given),,inactive: -13.1%
COc1ccc(N2C(=O)CC(N3CCN(C4CCc5ccccc5C4)CC3)C2=O)cc1 (stereo not given),,inactive: -11.3%
Cc1cc2c(cc1C)NC(c1c(C)n(C)n(-c3ccccc3)c1=O)C1=C(CC(C)(C)CC1=O)N2 (stereo not given),"inconclusive [inhibitor, single point]",
CCCCn1nnnc1C(c1ccccc1)N1CCN(CC)CC1 (stereo not given),,inactive: -11.2%
COc1ccc([C@H]2CC(=O)C=C(c3cccc(F)c3OC)C2)cc1,"inconclusive [inhibitor, partial curve, poor fit]",
CC(C)(C)OC(=O)N1CCC(C(=O)Nc2cccc(C(=O)NCCCc3ccccc3)c2)CC1,active: 20.6 µM,
O=C(NCc1cccs1)C1CCN(c2nc3ccccc3o2)CC1,,inactive: -25.4%

SMILES,Potency,"activity change, negative = growth inhibition"
COc1ccc(-c2cn(-c3ccc(SC(F)F)cc3)c3[n+]2CCC3)cc1OC,active: 18.4 µM,
CCOc1ccc(C2C(C(N)=O)=C(C)Nc3nc(-c4cccc(Cl)c4)nn32)cc1OC (stereo not given),"inconclusive [inhibitor, single point]",
CC1=NN(C(=O)c2cccc(Cn3nc(C)c([N+](=O)[O-])c3C)c2)C(O)(C(F)(F)F)C1 (stereo not given),"inconclusive [inhibitor, single point]",
Cc1ccc(S(=O)(=O)n2oc(=O)c(C3CCCCC3)c2N)cc1,"inconclusive [inhibitor, single point]",
Cc1ccc(NC(=O)C2CCCN(S(=O)(=O)c3c(C)nn(C)c3C)C2)c(C)c1 (stereo not given),"inconclusive [inhibitor, single point]",
O=CC(=O)c1ccc(F)cc1,"inconclusive [inhibitor, single point]",
CC[C@]1(O)CC2CN(CCc3c([nH]c4ccccc34)[C@@](C(=O)OC)(c3cc4c(cc3OC)N(C)[C@H]3[C@@](O)(C(N)=O)[C@H](O)[C@]5(CC)C=CCN6CC[C@]43[C@@H]65)C2)C1 (stereo not given in full),active: 0.335 µM,
Cc1ccccc1C(=O)N1CCC2CC1c1cc(Cl)ccc12 (stereo not given),"inconclusive [inhibitor, partial curve]",
Cc1cccc(NC(=O)c2nc[nH]c2C(=O)NC[C@@H](C)O)c1,,inactive: -20.8%
Cc1nc(N2CCN(C(=O)COc3ccccc3)CC2)c2c(C)c(C)sc2n1,"inconclusive [inhibitor, single point]",
O=C(Nc1cccc(S(=O)(=O)N2CCCCCC2)c1)c1ccc(Cl)nc1,active: 14.6 µM,
CC(C)Oc1ccc(C(=O)NC2CCCCC2)cc1,"inconclusive [inhibitor, single point]",
Cc1ccc(-c2nc3ccc(Cl)cn3c2Cc2ccccc2C(F)(F)F)cc1,"inconclusive [inhibitor, partial curve]",
Cc1[nH]n(-c2ccccc2)c(=O)c1C(=O)c1ccc([N+](=O)[O-])cc1,"inconclusive [inhibitor, single point]",
COc1ccc2c(c1)CCc1cnc(-n3ncc(C(=O)NCc4cccnc4)c3C3CC3)nc1-2,"inconclusive [inhibitor, single point]",
C=CCn1c(=O)c(C(=O)NCc2ccccc2Cl)c(O)c2ccccc21,"inconclusive [inhibitor, single point]",
O=C(CCN1C(=O)S/C(=C\C=C\c2ccccc2)C1=O)Nc1ccc(O)cc1,"inconclusive [inhibitor, single point]",
CC(NC(=O)C1=CC=CN2CCS(=O)(=O)N=C12)c1ccc(Cl)cc1Cl (stereo not given),"inconclusive [inhibitor, full curve, poor fit]",
Cc1nc(NC(=O)c2cccc(-c3cc4ccccc4oc3=O)c2)ccc1Br,"inconclusive [inhibitor, single point]",
CCOc1ccc(CCNC(=O)COC(=O)c2cccc(N(C)C)c2)cc1OCC,"inconclusive [inhibitor, single point]",
COc1cccc(CNC(=O)Cn2c(SCC(=O)Nc3ccc(C)c(C)c3)nc3ccccc32)c1,"inconclusive [inhibitor, partial curve]",
O=S1(=O)c2ccc(Br)cc2OC(COCc2ccccc2)CN1Cc1ccccc1 (stereo not given),"inconclusive [inhibitor, single point]",

SMILES,Potency,"activity change, negative = growth inhibition"
CCCCCOc1ccc(NC(=O)Cn2c(-c3cncs3)nc3ccccc32)cc1,"inconclusive [inhibitor, single point]",
COc1ccc(-c2cc(C(=O)O)c3ccccc3n2)c(OC)c1,,inactive: -12.4%
Cc1nc2c(-c3ccccc3)cnn2c(N)c1-c1ccccc1,"inconclusive [inhibitor, single point]",
CCOC(=O)CN1C(=O)N[C@@H](CCc2ccccc2)[C@@H](C(=O)OC)[C@H]1C,,inactive: -16.3%
C[C@H](CO)NC(=O)c1[nH]cnc1C(=O)Nc1cccc(Cl)c1,"inconclusive [inhibitor, single point]",
O=C(O)c1c2c(nc3ccc(S(=O)(=O)N4CCC(C(=O)NCc5ccc(Cl)cc5)CC4)cc13)CCCC2,inactive,
O=C(CCCC1=NS(=O)(=O)c2ccccc2N1)N1CCN(c2ccc(Cl)cc2)CC1,"inconclusive [inhibitor, single point]",
O=C(COc1cccc(NC(=O)c2cccc([N+](=O)[O-])c2)c1)c1ccc(Br)cc1,"inconclusive [inhibitor, single point]",
COc1cc(/C=C/c2nc3cc(Cl)ccc3c(=O)n2-c2ccc(C)cc2C)cc(OC)c1OC,"inconclusive [inhibitor, single point]",
CC1CCCN(C(=O)c2ccc(-c3ccccc3Cl)o2)C1 (stereo not given),"inconclusive [inhibitor, single point]",
CC1(C(=O)NS(=O)(=O)c2ccccc2)CCN1C(=O)Cc1cc(F)ccc1F (stereo not given),,inactive: 1.27%
CCC(/C=C1\Oc2ccc(OC)cc2N1C)=C\c1sc2ccccc2[n+]1CCCS(=O)(=O)[O-],"inconclusive [inhibitor, single point]",
COc1ccc(S(=O)(=O)NCC(c2ccco2)N2CCN(c3ccccc3F)CC2)cc1C (stereo not given),active: 18.4 µM,
CSc1ccc(NC(=O)Cn2nnnc2-c2ccccc2F)cc1,,inactive: -18.6%
COc1ccccc1CCCNC(=O)C1CCC(=O)N(CCN2CCOCC2)C1 (stereo not given),,inactive: 19%
Cc1ccccc1Cn1ccc(NC(=O)c2nn3cccnc3c2Cl)n1,"inconclusive [inhibitor, partial curve]",
O=C(COC(=O)c1ccccc1SCC(=O)NC1CCCCC1)NC1CCCCC1,,inactive: -14.5%
COCCNc1ncnc2c1ncn2[C@H]1CN(Cc2ccco2)C[C@@H](CO)O1,"inconclusive [inhibitor, single point]",
O=C(Nc1nc2ccccc2[nH]1)c1ccccc1F,active: 11.6 µM,
CS(=O)(=O)c1nc(S(=O)(=O)c2ccc(Cl)cc2)c(N2CCC(C(N)=O)CC2)s1,"inconclusive [inhibitor, full curve]",
CCc1c(C)c(C#N)c2nc3ccccc3n2c1-n1nc(C)cc1C,"inconclusive [inhibitor, single point]",
